Here are results for 83 compounds from PubChem BioAssay AID1346428 (National Center for Advancing Translational Sciences (NCATS), 2018).

Values joined by “and” are separate entries in the source; they are usually repeats but may differ in a detail not shown here. Equal entries are not always repeated. Hit rate of the full screen: of about 48,000 compounds, about 1,200 (2.5%) were called active. Not shown: some 2% with an inconclusive outcome.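 Rule for the calls: active = activation of at least 60% and not above a set upper limit (about 1 call in 100 departs from these limits); inconclusive = activation of 40% to 60%, or above that upper limit; inactive = activation under 40%.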 The list shows a part of the results.

For the test, the target named is Probable G-protein coupled receptor 32 (Homo sapiens) (UniProt O75388). Kind of test: qHTS for Agonists of Human Resolvin D1 Receptor DRV1. Note: 0% is about no effect. To be noted: CHO-K1 GPR32 beta-arrestin PathHunter luminescence, 90 min; at 76.9 µM; stronger effect = higher value; zero percent set by DMSO-only wells. The gist of the method: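 Agonism was scored as beta-arrestin recruitment to ProLink-fused GPR32 in stably transfected CHO-K1 cells, giving a chemiluminescent beta-Gal signal; compounds were incubated 90 min at 37 °C.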
Sequence of UniProt O75388 (O75388 whole entry, looked up, the tested form may be a part): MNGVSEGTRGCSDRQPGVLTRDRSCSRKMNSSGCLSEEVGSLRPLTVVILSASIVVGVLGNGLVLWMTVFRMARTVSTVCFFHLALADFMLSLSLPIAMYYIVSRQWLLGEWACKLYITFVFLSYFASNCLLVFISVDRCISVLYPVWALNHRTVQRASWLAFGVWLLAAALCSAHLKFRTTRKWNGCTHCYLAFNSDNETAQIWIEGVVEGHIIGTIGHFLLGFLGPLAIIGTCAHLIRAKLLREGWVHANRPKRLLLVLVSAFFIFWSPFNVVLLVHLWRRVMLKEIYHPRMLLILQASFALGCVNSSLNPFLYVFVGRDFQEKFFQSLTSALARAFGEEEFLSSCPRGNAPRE
On the technique in general: Quantitative high-throughput screening tests each substance at several concentrations.
For the compound `Cc1nn2c(C)c(C(=O)NCc3cccc(Br)c3)cnc2c1-c1ccccc1`, the activation was inactive: -3.85%. To `CCOc1ccc(S(=O)(=O)N(CC(=O)Nc2ccc(OC)c(Cl)c2)c2ccccc2)cc1` belongs inactive: 5.38%; to `Cc1ccc(-c2nnc(Nc3ccc(O)cc3)c3ccccc23)cc1S(=O)(=O)NC(C)(C)CO`, inactive: -7.9%; to `NC(=O)C(=O)N/N=C/c1ccc([N+](=O)[O-])o1`, inactive: 41.1%. To `CCN(CC)C(=O)Cn1c(=O)n(CCCCCC(=O)Nc2ccccc2)c(=O)c2sccc21` belongs inactive: -15%; to `CCOC(=O)c1sc2ncn(CC(=O)Nc3cc(C)cc(C)c3)c(=O)c2c1C`, inactive: -6.41%; to `COC(=O)c1ccccc1NC(=O)Cn1c(=O)cc(-c2ccccc2)c2c(C)nn(C)c21`, inactive: -11.6%. Regarding `CC(C)(C)NCC(O)COc1cccc2[nH]c(=O)[nH]c12` (stereo not drawn), the activation is inactive: 13.1%. As for `O=C(NCc1ccccc1F)c1cc2ccccn2n1`, the activation was inactive: 13.9%. Next, `Cc1ccc(CN2CCc3nc(N4CCN(c5ccccc5F)CC4)ncc3C2)s1`: inactive: -8.76%; `Cc1ccc(NC(=O)C2CCCN2S(=O)(=O)c2cccc3nsnc23)c(Br)c1` (stereo not drawn): inactive: -30.5%; `Cc1ccc2oc(=O)c3cc(C(=O)NCc4ccc(Cl)cc4)sc3c2c1`: inactive: -14.9%. `Cc1cccc(-c2nc(C)c(CCNC(=O)C(=O)Nc3c(C)cc(C)cc3C)s2)c1`: the activation was inactive: -6.29%. `Cc1cc(SCC(=O)NCc2ccccc2Cl)nc(=O)[nH]1`: the activation was inactive: 11.4%. To `COc1ccc(CNC(=O)c2ccc(NC(=O)N3CCCCc4ccccc43)cc2)c(OC)c1` belongs inactive: -0.254%; to `Cc1ccc(-c2noc(CSc3nnc(C)n3-c3ccc(F)cc3)n2)cc1`, inactive: -9.46%. On to `Cc1cccc(C)c1NC(=O)CCS(=O)(=O)c1ccc2c(c1)n(C)c(=O)c(=O)n2C`, for which the activation is inactive: 5.94%.

`COc1ccc(-c2csc3nc(-c4ccc(F)cc4)oc(=O)c23)cc1OC`: the activation is inactive: -2.86%.

`Cc1cc(/C=C(\C#N)C(=O)Nc2ccccc2)c(C)n1-c1ccc(F)cc1`: the activation is inactive: -6.48%. Next, `COC(=O)c1ccccc1NC(=O)c1sc2nc(C)cc(C)c2c1NC(=O)c1ccccc1Cl`: inactive: -4.24%; `COc1ccc2c(CNCc3cccs3)c(C(=O)O)n(Cc3cccc(F)c3)c2c1`: inactive: 48.9%. To `CCOC(=O)NNc1ccc(N(CC)CC(C)O)nn1` (stereo not drawn) belongs inactive: 5.44%; to `COc1ccc(NC(=O)c2cc(C(C)=O)n3ccccc23)cc1Cl`, inactive: -7.12%; to `CCOC(=O)c1cccc(NC(=O)C2CCN(S(=O)(=O)c3c(C)noc3/C=C/c3ccc(C)cc3)CC2)c1`, inactive: 0.183%. Next, `CC(CNC(=O)c1ccc2nc(CCc3ccccc3)oc2c1)c1ccccc1` (stereo not drawn): inactive: -12.4%; `COc1ccc(NC(=O)c2ncoc2-c2ccco2)cc1Cl`: inactive: 14.2%. With `Cc1cccc(C(=O)Nc2ccc3nc(SCC(=O)N4CCc5ccccc54)sc3c2)c1`, the activation is inactive: 2.31%. To `COc1ccc(OC)c(-c2nnc3n(CCc4ccccc4)c(=O)c4ccccc4n23)c1` belongs inactive: -0.955%; to `COc1ccc(CNC(=O)Cn2ccc3cc(S(=O)(=O)N4CCCC4)ccc32)c(OC)c1`, inactive: 8.4%. Next, `CCn1c(=O)n(-c2ccc3c(c2)OCO3)c2nc(-c3cc(OC)ccc3OC)nc(C(N)=O)c21`: inactive: 10.8%; `COc1ccc(CNC(=O)c2cc(C3CC3)nc3c2c(C)nn3-c2cccc(Cl)c2C)cc1`: inactive: -5.8%. With `O=C(Cc1ccccc1)Nc1sc2c(c1C(=O)Nc1ccccc1Cl)CCCC2`, the activation is inactive: 17.4%. Regarding `COc1cc(NC(=O)c2nc(-c3ccc(Cl)cc3)n3c2CCCCC3)cc(OC)c1OC`, the activation was inactive: -6.39%. For `COc1ccc(CNC(=O)c2ccc(NC(=O)N3CCSc4ncccc43)cc2)c(OC)c1`, the activation was inactive: -0.325%. Next, `Cc1ccccc1C(=O)Nc1cccc(C(=O)OCc2cc(=O)n3c(C)csc3n2)c1`: inactive: -16.3%. To `CCOc1ccc2oc(=O)cc(CN3CCN(C(=O)c4cccc(Cl)c4)CC3)c2c1` belongs inactive: -16.6%; to `Cc1ccc(C)c(Nc2nn3c(=O)c4ccc(C(=O)N(C)Cc5ccccc5)cc4nc3s2)c1`, inactive: -9.66%; to `Clc1cccc(N2CCN(c3nc4ccccc4c4nc(-c5ccccc5)nn34)CC2)c1`, inactive: -0.255%.

`CCOc1ccc(-c2nc(CSCC(=O)NCCc3ccccc3)c(C)o2)cc1`: the activation is inactive: -5.89%. To `CCN1CCN(c2cc(C)c3cc(NC(=O)c4cc(OC)c(OC)c(OC)c4)ccc3n2)CC1` belongs inactive: 1.77%. Next, `COc1cccc(-c2nc(S(=O)(=O)c3ccc(C)cc3)c(NCc3ccccc3)o2)c1`: inactive: -5.52%; `COc1ccc(N2C(=O)CS(=O)(=O)C23C(=O)N(Cc2ccccc2)c2ccccc23)cc1` (stereo not drawn): inactive: -8.86%.

In the case of `COc1cccc(CNC(=O)CCCn2c(=O)c3cccn3c3ccc(F)cc32)c1OC`, the activation is inactive: -11.5%. To `Cc1cc(C)cc(NC(=O)Cn2c(=O)n(CCC(C)C)c(=O)c3cccnc32)c1` belongs inactive: 2.5%. In the case of `CCc1ccc2oc(C(=O)N(Cc3cccc(Cl)c3)Cc3ccco3)c(C)c2c1`, the activation is inactive: 3.49%. For the compound `Cn1c(=O)cc(SCC(=O)NCCc2ccc(Cl)cc2)c2cc(Cl)ccc21`, the activation was inactive: -3.48%. To `O=C(CSc1nc2ccccc2c2nc(-c3ccccc3)nn12)Nc1ccc(F)cc1` belongs inactive: -1.95%. With `O=C(Cn1c2ncccc2c(=O)n1-c1ccccc1)Nc1cccc(C(F)(F)F)c1`, the activation was inactive: 2.99%. To `COc1ccc(-c2cc(C(C)=O)c(C)n2CCC(=O)Nc2cccc(C)c2C)cc1` belongs inactive: -11.1%; to `CCc1nn2c(=O)cc(COC(=O)c3cccc(NC(=O)COc4ccccc4F)c3)nc2s1`, inactive: -4.46%.

`COc1ccc(Cl)cc1NC(=O)c1cc(=O)c2cc(C)cc(C)c2o1`: the activation was inactive: 0.382%.

For the compound `Cc1ccc(C)c(NC(=O)Cn2cc(S(=O)(=O)N3CCCC3)c(S(=O)(=O)N3CCCC3)c2)c1`, the activation is inactive: 1.56%. As to `Cc1cccc(NC(=O)CSc2nc(C)cc(C)c2C(=O)Nc2ccc(Cl)cc2)c1`, the activation was inactive: 17.8%. Next, `CCc1cccc(NC(=O)Cn2c(=O)n(Cc3ccccc3)c(=O)c3c(C)c(C(=O)N(C)C)sc32)c1`: inactive: 9.36%. With `CCOc1ccccc1N(C)C(=O)c1cc(S(=O)(=O)NCc2ccc(C)cc2)ccc1F`, the activation was inactive: 4.27%. Next, `CN1CCN(C(=O)c2cnn(-c3ccccc3)c2C2CCN(C(=O)OC(C)(C)C)CC2)CC1`: inactive: -11.6%; `CCc1nnc(SC(CC)C(=O)NCCOC)c2cc3occc3n12` (stereo not drawn): inactive: -7.65%; `Cc1ccc(CCNC(=O)Cn2ncc3c(=O)oc4ccccc4c32)cc1`: inactive: 12.7%. To `OCc1ccccc1O` belongs inactive: -20.8%; to `COc1ccc(-c2nc3ccccc3o2)cc1NC(=O)COc1c(C)cc(Cl)cc1Cl`, inactive: 12.3%. With `CCC(=O)C1=C(c2cccc([N+](=O)[O-])c2)N(C(=O)CC)n2c(nnc2C2CCCCC2)S1`, the activation is inactive: -42.7%. To `CCc1ccc2c(c1)c(=O)c(S(=O)(=O)c1ccccc1)cn2CC(=O)Nc1cc(C)ccc1C` belongs inactive: -0.537%; to `COc1cc(NC(=O)CN(C)S(=O)(=O)c2ccc3c(c2)CCCC(=O)N3)cc(OC)c1OC`, inactive: 21%; to `Cc1cccc(-c2nc3c4ccccc4n(CC(=O)Nc4cccc(F)c4)c(=O)n3n2)c1`, active: 75.6%. Next, `CC(C)(C)OC(=O)N1CCC(c2c(C(=O)N3CCN(c4ccccc4F)CC3)cnn2C(C)(C)C)CC1`: inactive: -8.25%; `CCOC(=O)C1CCN(c2csc3ccc(C)cc3c2=O)CC1`: inactive: -26.1%; `COC(=O)c1cc2sc(C)cc2n1Cc1nc(-c2cccc(Br)c2)oc1C`: inactive: -17.8%. Take `CCC(=O)N1CCc2cc(Br)cc(S(=O)(=O)CCC(=O)NCc3ccc(C)cc3)c21`: the activation is inactive: -5.25%.

For the compound `CCOC(=O)[C@@](C)(N)Cc1ccc(O)c(O)c1`, the activation is inactive: 15.7%. `Cc1cc(O)c(C(c2ccccc2)N2CCN(c3ccccc3F)CC2)c(=O)n1Cc1ccco1` (stereo not drawn): the activation is inactive: -13.1%.

On to `COC(=O)c1sc(S(=O)(=O)N2CCN(c3ccc(OC)cc3)CC2)c(C(=O)OC)c1C`, for which the activation is inactive: -7.11%.

For the compound `COc1ccc(CNC(=O)C(=O)Nc2ccccc2OC)cc1`, the activation is inactive: -5.26%. Regarding `COc1ccc(OC)c(NC(=O)CSc2nccn2-c2cc(C)cc(C)c2)c1`, the activation was inactive: 6.92%. To `Cc1ccc(-c2nc3ccccc3[nH]2)cc1NC(=O)COc1ccc(Cl)cc1Cl` belongs inactive: -3.54%; to `O=C(c1ccccc1)c1ccc2n1CCC2C(=O)O` (stereo not drawn), inactive: -4.64% and inactive: -9.23%; to `CC(=O)Nc1c(C)nn(-c2ccccc2)c1N1CCC(C(=O)Nc2ccc(Cl)cc2C)CC1`, inactive: -7.47%. Regarding `COc1cc(NC(=O)CN2C(=O)C(c3ccc(C)cc3)=NC23CCCCCC3)cc(OC)c1`, the activation was inactive: -32.6%. To `COc1ccc(-n2c(=O)c3ccc(C(=O)NCc4ccc(C)cc4)cc3n(Cc3ccc(F)cc3Cl)c2=O)cc1` belongs inactive: 16.2%; to `CC1(C)N=C(c2ccc(F)cc2)C(=O)N1CC(=O)Nc1ccccc1Cl`, inactive: -12.9%.

`CCCC(=O)Nc1nc2c(s1)CC(C(C)(C)C)CC2` (stereo not drawn): the activation was inactive: -0.408%.

Take `COc1c(N2CCNC(C)C2)c(F)cc2c(=O)c(C(=O)O)cn(C3CC3)c12` (stereo not drawn): the activation was inactive: -17.5%. With `COc1ccc(N2CCN(C(=O)CCc3nnc4n(C)c(=O)c5sccc5n34)CC2)cc1`, the activation was inactive: -2.15%.

With `Cc1ccc(CN2C(=O)CC(c3ccc(Cl)cc3)c3c(C)nn(-c4nc(C)cc(C)n4)c32)cc1` (stereo not drawn), the activation is inactive: -13.3%.
